Measurements: PubChem BioAssay AID488969 (Vanderbilt High Throughput Screening Facility, 2010)
Over roughly 110,000 compounds, “z-score” has its median near -0.1; the highest 2% begin near 2. The list shows a part of the results. Calls of active or inactive are those of the source.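 Rule for the calls: active = z-score in the third read window above 3 or below -3; inactive = the rest.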

Biological target: Metabotropic glutamate receptor 8 (Rattus norvegicus) (UniProt P70579)
Assay: mGluR8 Gi/Go-coupled signaling modulation – cell-based, rat, thallium flux, HTS, primary screen (AID 488969)
Conditions: HEK293 rat mGluR8, GIRK (G protein-gated inwardly rectifying potassium channel) thallium flux, FluoZin2; at 10 µM; stronger effect = higher value; submaximal glutamate (EC20) added with thallium

Chain of UniProt P70579 (P70579 whole entry, looked up): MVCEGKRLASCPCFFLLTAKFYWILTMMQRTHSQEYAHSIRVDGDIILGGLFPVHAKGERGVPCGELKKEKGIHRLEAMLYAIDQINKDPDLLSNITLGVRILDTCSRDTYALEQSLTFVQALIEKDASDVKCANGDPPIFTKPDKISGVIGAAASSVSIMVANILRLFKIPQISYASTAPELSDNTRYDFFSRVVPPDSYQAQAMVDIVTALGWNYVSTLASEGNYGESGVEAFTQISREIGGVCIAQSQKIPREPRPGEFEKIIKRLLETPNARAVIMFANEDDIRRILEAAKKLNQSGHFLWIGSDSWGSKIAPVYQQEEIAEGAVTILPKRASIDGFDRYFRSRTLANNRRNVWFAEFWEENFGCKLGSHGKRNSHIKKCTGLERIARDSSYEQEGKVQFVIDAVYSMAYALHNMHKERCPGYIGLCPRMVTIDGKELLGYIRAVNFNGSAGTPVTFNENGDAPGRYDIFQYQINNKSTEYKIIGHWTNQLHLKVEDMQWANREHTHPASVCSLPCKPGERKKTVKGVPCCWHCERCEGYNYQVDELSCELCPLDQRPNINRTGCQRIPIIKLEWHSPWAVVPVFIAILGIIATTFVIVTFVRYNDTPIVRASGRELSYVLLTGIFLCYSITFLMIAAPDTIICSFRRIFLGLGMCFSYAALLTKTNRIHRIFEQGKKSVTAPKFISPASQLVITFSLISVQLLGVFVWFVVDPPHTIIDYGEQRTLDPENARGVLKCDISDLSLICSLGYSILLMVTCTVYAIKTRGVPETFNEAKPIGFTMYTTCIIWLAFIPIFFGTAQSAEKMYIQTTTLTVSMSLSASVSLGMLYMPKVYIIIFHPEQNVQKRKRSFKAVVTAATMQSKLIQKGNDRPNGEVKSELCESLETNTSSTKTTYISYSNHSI

Compound	z-score
O=C(NCc1ccc2c(c1)OCO2)c1ccc(-n2cnnn2)cc1	0.434
CCOC(=O)CSc1nnc(C2CCCCC2)n1C	0.0879
Cc1ccc(OCc2ccc(C(=O)Nc3nc4ccccc4n3Cc3ccccc3)o2)c([N+](=O)[O-])c1	-0.175
O=C(O/N=C/C1=C(Cl)c2ccccc2CC1)c1ccc(F)cc1	0.133
Fc1ccc2nc(Nc3nc4c(s3)CCCC4)sc2c1	0.157
CCOC(=O)C1CCCN(C(=O)c2cc3c(=O)n4cccc(C)c4nc3n2C)C1 (centres undefined)	-0.803
Nn1c(Cc2cccc3ccccc23)nnc1SCC(=O)NC1CCS(=O)(=O)C1 (centres undefined)	1
O=C1c2ccccc2S(=O)(=O)N1CC(O)Cn1c2ccccc2c2ccccc21 (centres undefined)	0.428
CCOc1ccccc1N1CCN(C(=S)NC(=O)C23CC4CC(CC(C4)C2)C3)CC1	active: 4.1
COc1cccc(C(=O)/C=C/c2ccc(SC)cc2)c1	0.0506
CC1CCc2nn(CC(=O)NCCCN3CCCC3=O)cc2C1 (centres undefined)	-0.239
COc1ccc2oc(=O)c(C(C)=O)cc2c1	-0.473
CC1CCN(C(=O)CSc2nc3ccccc3c(=O)n2Cc2ccc3c(c2)OCO3)CC1	2.16
COc1cccc(-n2nnc3c(=O)n(Cc4ccc(C)cc4)cnc32)c1	0.0962
COc1ccc(OC)c(NC(=O)COC(=O)CN(C)S(=O)(=O)c2ccc(C)cc2)c1	-0.536
O=C(NCCCN1CCOCC1)C(C(=O)c1ccccc1)n1ccccc1=O (centres undefined)	-0.175
Cc1c(Cl)cnc(NC(=O)COC(=O)C(NC(=O)c2ccco2)C(C)C)c1Cl (centres undefined)	-1.73
CNC(=O)CSc1nnc(-c2cccnc2)n1CCc1ccccc1	0.335
Cc1nc2nc(Cc3ccccc3)[nH]n2c(=O)c1Cl	-2.38
O=C(NC1(C(=O)NC2CCCCC2)CCCCC1)c1ccccn1	-0.2
Cc1nn(-c2ccccc2)c(N2CCCC2)c1/C=C1\N=C(c2ccccc2)OC1=O	-0.333
Cc1onc(-c2ccccc2Cl)c1C(=O)N1CCN=C1SCc1cccnc1	-0.157
c1ccc2sc(NC3=NCN(Cc4ccc5c(c4)OCO5)CN3)nc2c1	-0.226

Compound	z-score
Cc1noc(C)c1COc1ccc(C(=O)OC(C)C(=O)Nc2ccc(S(=O)(=O)N3CCOCC3)cc2)cc1 (centres undefined)	0.0892
Cc1nnc(NC(=O)CSCc2ccccc2)s1	0.148
Cc1ccsc1-c1nc(-c2ccccc2)c(-c2ccccc2)[nH]1	-0.0246
O=C(CCn1ccc2ccccc21)NC1CCCc2ccccc21 (centres undefined)	-0.387
CCOC(=O)C1CCCN(c2nc3ccccc3nc2C(C#N)C(=O)NCc2ccccc2)C1 (centres undefined)	-1.4
CCOc1ccc2nc(SCc3ccc(C(=O)OC)o3)[nH]c2c1	-0.628
NC(=O)C1CCN(C(=O)C2CCN(S(=O)(=O)c3ccccc3)CC2)CC1	0.78
COC(=O)CSc1nc2sc3c(c2c(=O)n1-c1ccccc1)CCN(C)C3	0.144
Cc1ccc2c(Cl)c(C(=O)NCCCn3ccnc3)sc2c1	-0.348
CCOC(=O)c1c(NC(=O)CN2CCCCC2)sc2c1CCN(C(=O)OCC)C2	0.0144
COc1ccc(NC(=S)Nc2cc(C)ccn2)c(OC)c1	-0.121
O=C(CSC1=NCCS1)Nc1ccc(S(=O)(=O)NC2CCCCC2)cc1	0.0744
COc1ccc(Nc2ncnc3c2cnn3Cc2ccccc2)cc1OC	-0.181
COc1ccccc1N1CCN(C(CNS(=O)(=O)c2ccc(C)cc2)c2cccnc2)CC1 (centres undefined)	-0.377
Cc1cccc2sc(NC(=O)C3CCN(S(=O)(=O)c4cc([N+](=O)[O-])ccc4Cl)CC3)nc12	0.0365
Cn1c(C(=O)NCCN2CCc3ccccc3C2)cc2c(=O)n(C)c3ccccc3c21	2.7
Cc1oc(-c2ccccc2Cl)nc1CSCC(=O)N1CCCC1	0.236
Cc1ccc(S(=O)(=O)Cc2ccccc2Cl)cc1	-0.187
CCC(C(=O)NCc1ccco1)N(C(=O)CNS(=O)(=O)c1ccccc1)c1ccc(OC)cc1 (centres undefined)	-0.622
CCOc1ccc(Oc2c(/C=N/NC(=O)C3CC3)c(C)nn2-c2ccccc2)cc1	0.189
O=S(=O)(NC1CCCCC1)c1ccc(F)c2ccccc12	0.851
O=C(NC(Nc1ncc(S(=O)(=O)c2ccc([N+](=O)[O-])cc2)s1)(C(F)(F)F)C(F)(F)F)c1ccc(Cl)cc1	0.648
Cc1ccc(-c2cnc(NC(=O)c3cccc(Br)c3)s2)c(C)c1	-0.494

Compound	z-score
COc1cc(CNc2ccc3[nH]c(=O)[nH]c3c2)cc(Cl)c1OCC(=O)NC(C)(C)C	0.206
COc1ccc(/C(C)=N\NC(=O)CSc2nnc(C)s2)cc1	0.105
O=C(CCc1nc2ccccc2s1)OCc1ccccc1	-0.24
CCCCn1nnc(NC(=O)c2cc3ccccc3o2)n1	-0.00864
O=C(c1cc(-c2ccccc2O)on1)N1CCc2ccccc2C1	0.426
O=C(CSCc1ccc(Cl)cc1)Nc1ccc2c(c1)OCO2	0.863
Cc1cccc(C)c1OCC(=O)NCc1nnc(SCC(=O)NC2CCCCC2)n1C	-0.406
COc1ccccc1N1CCN(C(=O)c2cc(N3C(=O)C4C5CCC(C5)C4C3=O)ccc2Cl)CC1 (centres undefined)	0.256
Cc1ccc2nc(NC(=O)COC(=O)CSc3nc(C)cc(C)n3)sc2c1	-0.273
CC(=O)c1ccccc1OCC(O)CN1CCN(C(c2ccccc2)c2ccccc2)CC1 (centres undefined)	0.908
CCOC(=O)c1cnc2c(cnn2C)c1NCCC#N	-0.0584
Cc1ccc(-n2c(C)cc(C3=NNC(=NC4CC4)SC3)c2C)cc1C	0.236
CC(C)(C)NC(=O)/C(=C/c1ccco1)c1ccccc1	-0.0597
CCOC(=O)c1c(NC(=S)Nc2ccccc2)sc2c1CCN(CC)C2	-0.00236
N#Cc1ccc(-c2csc(NC3=NCCCCC3)n2)cc1	-2.16
CN1CCN(CCNC(=O)Nc2ccccc2C(F)(F)F)CC1	-0.464
Cc1oc(-c2ccccc2F)nc1CS(=O)CC(=O)NCc1cccs1 (centres undefined)	-0.253
CC(=O)[C@@H]1[C@@H]2C(=O)N(C3CCCCC3)C(=O)[C@@H]2C2c3ccccc3C=CN21 (some centres undefined)	0.56
CCC(C)NS(=O)(=O)c1ccc(NC(C)=O)cc1 (centres undefined)	0.254
C=CCOc1c(Br)cc(CNc2nccs2)cc1OC	-0.161
CC(C)OC(=O)c1cccc(C(=O)Oc2ccccc2)n1	-0.633
COc1ccc(S(=O)(=O)NC2CCCC2)cc1Br	-1.19
CCCC(=O)OCC(=O)Nc1ccc(N=Nc2ccccc2)cc1	0.427
